Data published in the supplement of paper PMC3334620.
Whole data set: some 33,000 sequences, median “E-score (-0.5 to 0.5)” near -0.017, cut for the highest 2% near 0.3. The list shows a part of the results.

Each sequence was assayed against T1, Sut1 (UniProt P53032) (assay: PBM E-score (8-mer binding enrichment) (E-score (-0.5 to 0.5)); higher = stronger / more preferred TF binding; most listed sequences are background and not binding sites). Conditions: protein concentration: 200 nM; construct: GST-full length.
T1 sequence: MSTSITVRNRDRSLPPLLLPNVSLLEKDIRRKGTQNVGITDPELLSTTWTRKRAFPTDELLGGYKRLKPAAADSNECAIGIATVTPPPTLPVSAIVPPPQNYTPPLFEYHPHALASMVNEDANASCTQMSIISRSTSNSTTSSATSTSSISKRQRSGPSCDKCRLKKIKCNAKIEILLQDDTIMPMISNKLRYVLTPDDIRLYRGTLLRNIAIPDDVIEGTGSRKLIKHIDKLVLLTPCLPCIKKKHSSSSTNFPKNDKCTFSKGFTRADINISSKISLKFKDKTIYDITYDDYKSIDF
Description: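 Universal 'all 10-mer' protein binding microarrays (Agilent AMADID 015681) probed with GST-tagged S. cerevisiae TFs (full-length or DBD) made by in vitro transcription/translation (PURExpress), about 100-200 nM. Bound TF was detected with fluorescent anti-GST. Each ungapped 8-mer (which stands for itself and its reverse complement) is scored by the PBM enrichment score (E-score), a modified Wilcoxon-Mann-Whitney statistic from -0.5 to +0.5, computed with the Universal PBM Analysis Suite. Scale: above 0.35 generally sequence-specific binding.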

Row | Sequence | PBM E-score
1 | GGTCTGGA | -0.16
2 | GAAATCCC | -0.0066
3 | ACGAGCTA | 0.0481
4 | CTTGATAC | 0.0142
5 | GGACACCA | -0.181
6 | GAGCACTC | 0.0601
7 | CAGGCGCC | -0.0838
8 | AAGCGCAC | 0.00639
9 | GCCATAAC | -0.208
10 | CAACATCG | 0.0971
11 | ACGGGTAT | 0.0157
12 | GGCAACTA | 0.0135
13 | GCTTTACA | 0.118
14 | ACATAGGG | -0.225
15 | GATAAACA | 0.203
16 | CGGATCAG | 0.0262
17 | GGCGTCCA | -0.162
18 | CAACGTTG | 0.0732
19 | AATTCGGA | 0.396
20 | CTCGTTAA | 0.1
21 | ACGTTTAA | 0.163
22 | ATCTTTGC | 0.121
23 | GCAAACAA | 0.0767
24 | AGTCAAAC | -0.135
25 | CGAGGCTA | -0.0685

Row | Sequence | PBM E-score
26 | CAAGTAAC | 0.0878
27 | AACGAGTT | 0.09
28 | CAACTAAA | 0.25
29 | GCACTCTA | 0.0854
30 | ATGTATGA | 0.181
31 | GCCATCAC | -0.12
32 | CCCATTGA | -0.0299
33 | AACTAGTA | 0.0715
34 | AGAATACT | 0.112
35 | AAGTGTCC | 0.0158
36 | CCCAGAAG | -0.0542
37 | AGCCTTGG | -0.0726
38 | CAACCAGA | -0.0323
39 | GAACATCC | 0.167
40 | CCCATACC | -0.231
41 | GACGGCGC | -0.192
42 | AACTAGAT | 0.152
43 | AGCGCAAA | -0.0296
44 | GGAAAAAC | 0.184
45 | GTGCTAGA | -0.124
46 | GCAGTGAC | -0.155
47 | GGCATTCA | -0.138
48 | ACGAAGCC | 0.0745
49 | GACCACGA | -0.184
50 | ATGACGTG | -0.134

Row | Sequence | PBM E-score
51 | CACGCGTA | -0.0939
52 | AATGCTGC | -0.128
53 | CTGTACCA | -0.0498
54 | ACACTAAG | -0.0951
55 | TCTATGCA | 0.0041
56 | AAGTGTGA | -0.119
57 | GCCACGCA | -0.166
58 | CAAGGGGG | -0.199
59 | CCGTACAC | -0.153
60 | ATCTGGAA | -0.156
61 | AGTTACAA | 0.136
62 | ATAGTAAT | 0.2
63 | AGACCAGG | -0.0902
64 | CGTCCTAC | -0.19
65 | TCCTTACA | 0.0128
66 | CGGCTGAA | -0.00862
67 | ATCAATCA | 0.189
68 | CACATTGG | -0.041
69 | CCTTCGGC | -0.233
70 | GCAAGACC | -0.1
71 | CCGTGTGC | 0.0764
72 | TAGGTTGA | 0.0152
73 | ATCTGGAG | -0.0362
74 | GGACAGCC | -0.00183
75 | GGCCGACA | -0.0715

Row | Sequence | PBM E-score
76 | CGCAGCCC | -0.0392
77 | GCGCTAGC | -0.26
78 | AACCCTCA | -0.0699
79 | CGGCTTCC | 0.0133
80 | AGCGGCCG | 0.0454
81 | AGGCTGCA | -0.167
82 | ACTGAACT | 0.122
83 | GACCTATA | 0.206
84 | GTGTATTA | 0.274
85 | GGGAGAAA | -0.0502
86 | CCGGCTAG | -0.155
87 | GGCCACCC | -0.157
88 | CAGGTTGC | -0.135
89 | AGTGCACT | 0.178
90 | AAACCGGC | 0.0626
91 | GCTTGCAC | -0.0538
92 | CCTATCAC | -0.087
93 | AGGAATAT | -0.00657
94 | ATTAGGCA | -0.0605
95 | CGAGACGA | -0.163
96 | GGCGCCCC | -0.15
97 | AGCGCATC | -0.0758
98 | TGCTGAAA | 0.0314
99 | ATGCCATG | -0.0571
100 | CATCGCGG | -0.0604

Row | Sequence | PBM E-score
101 | TACAGGTA | 0.038
102 | CTGTCTCC | 0.0644
103 | ACGCTCCT | -0.168
104 | AAATCACT | 0.134
105 | AACAACGA | 0.139
106 | CAGGGCGG | -0.0156
107 | AATGACAA | 0.166
108 | AGGTCACA | -0.328
109 | GCGGTCAC | -0.123
110 | TAGGCGAA | 0.0159
111 | AGGACCTA | -0.0435
112 | ACGAGACC | -0.104
113 | CGCAGGCG | -0.291
114 | CCTCGTAA | 0.104
115 | AGCGATAG | -0.19
116 | CCATGTTA | -0.0625
117 | ACAGAGAG | -0.328
118 | AGCGTCGG | 0.0953
119 | TAATACCA | 0.208
120 | AACTTCTA | 0.131
121 | CCAGTTTA | 0.018
122 | ATAGCAAC | 0.118
123 | AAGAGGGA | -0.2
124 | TCGCCGCA | 0.038
125 | CGACGCAA | -0.0434

Row | Sequence | PBM E-score
126 | AGGTGTGA | -0.236
127 | AGAGACGG | -0.0502
128 | AGTCTGTC | -0.0639
129 | ACTAGTGG | 0.0275
130 | TAATTTGA | 0.0943
131 | CATGTCGA | -0.0193
132 | TACTTATA | 0.151
133 | AAAGATCT | -0.0291
134 | AAACCTTT | 0.199
135 | TCCGGCCA | 0.209
136 | ATCTCGCC | -0.215
137 | CGCATCAC | -0.119
138 | ATACGTTG | -0.0628
139 | TATAGCCA | 0.0639
140 | CGGCAGTC | 0.0702
141 | CGGCGGCA | -0.146
142 | CCAGTTCC | -0.131
143 | AAGCTAGT | 0.0677
144 | AACCAATT | 0.168
145 | CTTTGAAA | 0.17
146 | TCAGTCCA | -0.317
147 | GCTGTCCA | -0.145
148 | ATCAATAA | 0.0538
149 | AAGTCGAA | -0.067
150 | CGCTGCGC | -0.262

Row | Sequence | PBM E-score
151 | AACCGCTA | 0.0225
152 | CGTCAAAC | -0.0738
153 | TAACGCTA | 0.14
154 | AATTGGGA | 0.0631
155 | AACCTGTG | -0.188
156 | ATGGCTTG | -0.0924
157 | ATTTACTG | 0.181
158 | AACAATGT | 0.163
159 | CCGCGCAA | 0.026
160 | CGATTCGA | 0.101
161 | ACACTAGT | -0.0821
162 | AATGCCCC | -0.278
163 | CGACGCTC | 0.00691
164 | AGGTTGTC | -0.219
165 | GTTTGCAA | 0.161
166 | CCTAGTCG | -0.21
167 | CTACGAGC | -0.331
168 | CTGGGCCC | -0.166
169 | ACTCAAGA | 0.0905
170 | CTGCACAC | -0.246
171 | ACGCTGTC | -0.0588
172 | AAGGCCTC | -0.0551
